# Values joined by “and” are separate entries in the source; they are usually repeats but may differ in a detail not shown here. Equal entries are not always repeated. Among all 220,000 compounds or so, about 5,700 (2.6%) were called active. Inconclusive results, whose numbers are uncertain, are shown with a selection of clear calls. The call rests on the fitted dose curve; in most records, active means well fitted inhibition curve with a large enough effect; inconclusive means small, poorly fitted or top-dose-only effect; inactive means no such curve, though single readings can be large or run the other way. A potency beside an inconclusive call is a rough fit, not a confirmed value.
# Target: Lysine-specific demethylase 5B (Homo sapiens) (UniProt Q9UGL1)
# Sequence of UniProt Q9UGL1 (Q9UGL1 whole entry, looked up): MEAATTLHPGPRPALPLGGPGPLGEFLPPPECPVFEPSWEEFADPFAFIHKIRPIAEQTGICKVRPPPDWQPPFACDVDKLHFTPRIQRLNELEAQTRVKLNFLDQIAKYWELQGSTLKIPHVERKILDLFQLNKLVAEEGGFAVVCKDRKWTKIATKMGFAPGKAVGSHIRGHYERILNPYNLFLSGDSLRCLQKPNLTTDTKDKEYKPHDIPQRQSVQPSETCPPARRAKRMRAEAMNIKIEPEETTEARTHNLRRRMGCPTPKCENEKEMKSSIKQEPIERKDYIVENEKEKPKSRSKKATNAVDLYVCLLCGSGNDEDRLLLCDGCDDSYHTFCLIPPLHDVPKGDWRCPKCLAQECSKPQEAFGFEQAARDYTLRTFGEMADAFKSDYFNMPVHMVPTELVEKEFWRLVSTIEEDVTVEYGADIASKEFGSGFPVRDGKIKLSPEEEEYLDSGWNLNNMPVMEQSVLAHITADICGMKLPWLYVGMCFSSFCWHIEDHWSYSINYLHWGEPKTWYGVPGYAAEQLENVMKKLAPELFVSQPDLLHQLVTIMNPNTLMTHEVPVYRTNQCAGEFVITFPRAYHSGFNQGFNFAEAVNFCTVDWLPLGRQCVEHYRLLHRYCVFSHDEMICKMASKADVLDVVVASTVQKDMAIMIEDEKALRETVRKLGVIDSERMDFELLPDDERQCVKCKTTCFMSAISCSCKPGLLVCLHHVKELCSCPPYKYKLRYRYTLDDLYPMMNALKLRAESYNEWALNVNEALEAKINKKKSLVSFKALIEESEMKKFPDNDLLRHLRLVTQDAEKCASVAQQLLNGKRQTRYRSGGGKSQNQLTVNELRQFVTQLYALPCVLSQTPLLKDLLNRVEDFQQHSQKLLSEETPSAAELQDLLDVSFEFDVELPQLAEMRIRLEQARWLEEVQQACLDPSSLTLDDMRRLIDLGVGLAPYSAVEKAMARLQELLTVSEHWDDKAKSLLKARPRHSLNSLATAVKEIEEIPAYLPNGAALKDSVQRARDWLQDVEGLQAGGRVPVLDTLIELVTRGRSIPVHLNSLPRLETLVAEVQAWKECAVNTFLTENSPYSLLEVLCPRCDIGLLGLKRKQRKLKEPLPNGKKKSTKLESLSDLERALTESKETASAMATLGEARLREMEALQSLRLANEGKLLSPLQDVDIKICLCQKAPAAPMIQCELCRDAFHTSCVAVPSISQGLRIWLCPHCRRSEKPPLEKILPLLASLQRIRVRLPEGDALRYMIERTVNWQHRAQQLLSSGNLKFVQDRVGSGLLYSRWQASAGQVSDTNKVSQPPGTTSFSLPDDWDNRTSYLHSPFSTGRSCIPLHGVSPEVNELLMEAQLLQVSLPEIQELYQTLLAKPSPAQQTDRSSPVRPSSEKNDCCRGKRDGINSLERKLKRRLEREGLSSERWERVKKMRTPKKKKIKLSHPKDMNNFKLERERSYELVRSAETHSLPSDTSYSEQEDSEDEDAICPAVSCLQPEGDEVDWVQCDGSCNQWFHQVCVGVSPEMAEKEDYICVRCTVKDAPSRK
# Assay: Primary screen for KDM5B Histone Demethylases FDH-coupled qHTS; further: nearly all actives have a fitted effect of over 70% in size; on activity change, negative = inhibition: 0% is about no effect
# Details: FDH-coupled NADH fluorescence (FDH is formaldehyde dehydrogenase); activity change, negative = inhibition: at 57.7 µM (top of the series) unless noted
# Procedure, shortened: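 Here, H3K4me3 peptide (12.5 µM in substrate mix) is demethylated by KDM5BΔAP, 200 nM final, after 10 min compound exposure. Formaldehyde product is coupled through FDH (0.25 U/mL in mix) to NADH fluorescence; 30-min ΔRFU feeds dose-response curves.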
# Potency means the concentration at half of the fitted maximal effect; tags describe the fitted curve by direction and shape.
Structure (SMILES),Potency,"activity change, negative = inhibition"
COc1ccc(-c2cc(-c3cccc(NC(C)=O)c3)cn3cncc23)cn1,"inconclusive: 31.6 µM [inhibitor, partial curve, poor fit]",–
CN1CCC(Oc2nccnc2N2CCOCC2)C1 (stereo not drawn),–,inactive: 0.661%
CCc1nonc1NC(=O)c1oc2ccc(Cl)cc2c1C,"inconclusive: 15.8 µM [inhibitor, partial curve, poor fit]",–
O=C(c1ccc2[nH]ccc2c1)N1CCCN(c2cc(-c3ccc(Br)cc3)[nH]n2)CC1,–,inactive: -5.42%
CCOc1ccc(CCNC(=O)c2nn(C)c3c2CSc2ccc(C)cc2-3)cc1OCC,"inconclusive: 14.1 µM [inhibitor, partial curve, poor fit]",–
NC(=O)C1CN(CC(=O)Nc2cc(Cl)ccc2Cl)c2ccccc2O1 (stereo not drawn),–,inactive: 15.4%
OC(c1cccc(C(F)(F)F)c1)c1nc(Nc2ccc3c(c2)OCO3)n[nH]1 (stereo not drawn),"inconclusive: 28.2 µM [inhibitor, partial curve, poor fit]",–
CCCNC(=O)CC1COCCN1C(=O)CCc1c(C)nc(=O)[nH]c1C (stereo not drawn),"inconclusive: 28.2 µM [inhibitor, partial curve]",–
Cc1ccc(CNC(=O)C2CCCCC2)s1,–,inactive: -5.64%
C=CCNC(=O)N[C@H]1CCN2C(=O)c3cc(-c4cc(Cl)ccc4OC)ccc3NC(=O)[C@@H]2C1,"inconclusive: 31.6 µM [inhibitor, single point]",–
COc1cc(C)cc(OC)c1C(C(=O)O)N1CCN(CC2CC2)CC1 (stereo not drawn),"inconclusive: 31.6 µM [inhibitor, partial curve, poor fit]",–
COc1cccc(CC(=O)Nc2ccc3nc(Nc4cccc(C(F)(F)F)c4)cc(C)c3c2)c1,"inconclusive: 17.8 µM [inhibitor, partial curve, poor fit]",–
COC(=O)c1cc2oc3ccccc3c2n1CC(=O)Nc1ccc(F)c(Cl)c1,"inconclusive: 31.6 µM [inhibitor, partial curve, poor fit]",–
COC(=O)[C@@H]1Cc2ncn(Cc3ccc(Cl)cc3)c2CN1C(=O)COc1ccccc1,"inconclusive: 39.8 µM [inhibitor, single point]",–
Cc1ccc(F)cc1-n1nc(-c2c(C)nc3scc(CC(=O)NCC(C)C)n3c2=O)cc1C,active: 28.2 µM,–
CC[C@H]1CN(C(=O)Nc2cccc(OC)c2)CC[C@H]1CC(=O)O,–,inactive: 22.4% [at 86.2 µM]
Cn1c(NCc2ccc3c(c2)OCO3)nc2c1c(=O)n(Cc1ccccc1)c(=O)n2C,–,inactive: -20.5%
O=C(Nc1cccc(S(=O)(=O)N2CCCCCC2)c1)c1cccc2cccnc12,"inconclusive: 31.6 µM [inhibitor, single point]",–
CCC(C)NC(=O)Cn1c(=O)c2cccn2c2ccc(F)cc21 (stereo not drawn),"inconclusive: 35.5 µM [inhibitor, single point]",–
Cc1ccc(CN2C(=O)c3ccccc3NC2c2cc(Br)ccc2O)cc1 (stereo not drawn),"inconclusive: 28.2 µM [inhibitor, partial curve, poor fit]",–
O=C(Nc1ccc(F)cc1Cl)c1cnc(N2CCOCC2)c2ccccc12,"inconclusive: 28.2 µM [inhibitor, partial curve, poor fit]",–

Structure (SMILES),Potency,"activity change, negative = inhibition"
Cc1ccc2nc(-c3ccccc3)cc(C(=O)N3CCN(CC(=O)N4CCOCC4)CC3)c2c1,–,inactive: 16.4%
O=c1c2sc3ccccc3c2n(Cc2ccc(Cl)cc2)c(=O)n1Cc1ccco1,"inconclusive: 28.2 µM [inhibitor, partial curve, poor fit]",–
CCOc1cc(/C=C2/NC(=O)NC2=O)cc(I)c1OCC(=O)OC,–,inactive: 10.2%
COc1ccc(C2C=C(c3ccc(Cl)cc3)Nc3nc(NC(=O)CCC(=O)O)nn32)cc1 (stereo not drawn),"inconclusive: 6.31 µM [inhibitor, partial curve, poor fit]",–
Cc1ccccc1Nc1c(-c2c[nH]c3ccccc23)nc2cccc(C)n12,"inconclusive: 4.47 µM [inhibitor, partial curve, poor fit]",–
O=C(CN1CCN(c2cccc(Cl)c2)CC1)Nc1ccnn1Cc1cccc(Cl)c1,–,inactive: -24.4%
CN1CC(=O)N(C2CCC2)Cc2c1ncnc2N1CCC(O)CC1,–,inactive: -11.4% [at 86.2 µM]
COc1ccc(CN2CCN3C(=O)N(Cc4ccc(C)cc4)C[C@H]3C2)cc1,–,inactive: -19.8% [at 86.2 µM]
CN(CC(=O)N1CCc2nc3cc(-c4ccccc4)[nH]n3c(=O)c2C1)S(=O)(=O)c1cccs1,"inconclusive: 8.91 µM [inhibitor, full curve, poor fit]",–
Cc1ccc(S(=O)(=O)N2CC[C@H](c3nc4ccccc4[nH]3)C2)cc1,–,inactive: -17% [at 86.2 µM]
Cc1ccc(F)cc1S(=O)(=O)N1CCC(c2nc3ccccc3s2)CC1,–,inactive: 2.62%
CCc1ccc(C(=O)c2c(N)c(-c3nc4ccccc4[nH]3)c3ccccn23)cc1,"inconclusive: 17.8 µM [inhibitor, partial curve, poor fit]",–
CCn1c2c(c(=O)n3ncc(C(=O)Nc4ccc(Cl)cc4C)c13)CN(Cc1ccc(OC)cc1)CC2,"inconclusive: 20 µM [inhibitor, partial curve, poor fit]",–
Brc1cccc(-c2nnn3c2nc(N2CCCCC2)c2ccccc23)c1,"inconclusive: 28.2 µM [inhibitor, partial curve, poor fit]",–
CCOc1ccc(NC(=O)CCn2nc(-c3ccccc3OC)c3c(C)cc(C)nc32)cc1,–,inactive: -3.77%
Cc1ccc(C(=O)Nc2cccc(C(=O)N/N=C/c3ccc(O)cc3)c2)cc1,"inconclusive: 14.1 µM [inhibitor, partial curve, poor fit]",–
CC(=O)Nc1cccc(-c2cc3c(ccn3C)c(C(=O)NCc3c(C)cc(C)[nH]c3=O)n2)c1,active: 14.1 µM,–
CCOc1ccc(NC(=O)Cn2cc(C(=O)c3ccc(C)cc3)c(=O)c3cc4c(cc32)OCO4)cc1,–,inconclusive: -30.2% [inhibitor]
CCOCCc1nn2c(=O)cc(COC(=O)c3ccccc3NC(=O)c3ccc(C)cc3)nc2s1,"inconclusive: 39.8 µM [inhibitor, single point]",–
Clc1cccc(-n2ncc3c(NC4CCCCCC4)ncnc32)c1,"inconclusive: 31.6 µM [inhibitor, partial curve, poor fit] and inconclusive: 39.8 µM [inhibitor, single point]",–
CN(C)c1ccc(NC(=O)Cn2cc(S(=O)(=O)Cc3ccccc3Cl)c3ccccc32)cc1,"inconclusive: 7.08 µM [inhibitor, partial curve, poor fit]",–

Structure (SMILES),Potency,"activity change, negative = inhibition"
Cc1oc2c(c(C)cc3oc(=O)c(CC(=O)N[C@@H](CCCNC(N)=O)C(=O)O)c(C)c32)c1C,"inconclusive: 22.4 µM [inhibitor, partial curve, poor fit]",–
N#Cc1ccc(C(=O)N2CCCC2c2nc(CCOCC3CC3)no2)cc1 (stereo not drawn),–,inactive: 22.2%
COc1ccc2c(C)c(CC(=O)Nc3cccc(Cl)c3)c(=O)oc2c1,"inconclusive: 10 µM [inhibitor, partial curve, poor fit]",–
COc1ccc(-n2c3c(cc(-c4ncnn4-c4ccc(C)cc4C)c2=O)C(=O)CC(C)(C)C3)cc1,–,inactive: 3.85%
O=C(c1ccc(N2CC[C@@H](O)C2)nc1)N1CCC(Oc2cccnc2)CC1,"inconclusive: 15.8 µM [inhibitor, partial curve, poor fit]",–
O=C(C1CC1)N1CCCN(S(=O)(=O)c2ccc3c(c2)OCCO3)c2ccccc21,–,inactive: 0.665%
CN(C)C[C@@H]1CN(Cc2ccccn2)C[C@H]1NC(=O)c1cc(F)cc(F)c1,"inconclusive: 25.1 µM [inhibitor, single point]",–
CCOC(=O)c1cc2c(=O)n3ccccc3nc2n(Cc2ccco2)c1=NC(=O)c1cccc(Br)c1,"inconclusive: 17.8 µM [inhibitor, partial curve, poor fit]",–
Cc1ccc(-c2cc(C(=O)NCCN(C)C)c3cc(Br)ccc3n2)o1,"inconclusive: 31.6 µM [inhibitor, partial curve, poor fit]",–
CC(C)c1noc(C2CCCN(S(=O)(=O)c3cccs3)CCC(=O)NCC2)n1 (stereo not drawn),–,inactive: 3.71%
CC(NC(=O)c1[nH]c2ccccc2c1Cl)c1ccc(F)cc1 (stereo not drawn),–,inactive: -25.4%
O=C1CC(c2ccccc2)N(C(=O)NCc2ccccc2)CCCCCN1 (stereo not drawn),"inconclusive: 11.2 µM [inhibitor, partial curve]",–
N#Cc1cnc2ccccc2c1Nc1cccc(C(F)(F)F)c1,"inconclusive: 39.8 µM [inhibitor, single point]",–
CCOc1ccc(-c2cc(C(=O)O)c3cc(C)cc(C)c3n2)cc1,"inconclusive: 1.78 µM [inhibitor, partial curve, poor fit]",–
CN1CC(=O)N(C2CCCNCC2)Cc2c1ncnc2N1CCOCC1 (stereo not drawn),"inconclusive: 44.7 µM [inhibitor, partial curve]",–
CC(C)c1ccc(N2C(=O)N(Cc3cccc([N+](=O)[O-])c3)c3ccccc3S2(=O)=O)cc1,–,inactive: -8.79%
Cc1noc(-c2ccc(-c3noc(-c4ccc([N+](=O)[O-])c(C)c4)n3)cc2)n1,–,inconclusive: -80% [inhibitor] [at 11.5 µM]
COc1ccc(NC(=O)CSC2=NC3(CCCCC3)Nc3ccccc32)cc1,"inconclusive: 31.6 µM [inhibitor, single point]",–
COc1ccc(NS(=O)(=O)c2ccc3c(c2)[C@H]2C=CC[C@H]2[C@@H](c2ccc(C(=O)O)cc2)N3)cc1,"inconclusive: 12.6 µM [inhibitor, partial curve, poor fit]",–
Cc1cccnc1C(=O)N1C[C@@H](CO)[C@H](c2nc(C3CC3)no2)C1,"inconclusive: 7.08 µM [inhibitor, single point]",–
COc1cc(OC)c(C(=O)Oc2ccc(C#N)cc2OC)cc1OC,–,inactive: -14%

# Source: PubChem BioAssay AID1347165 (National Center for Advancing Translational Sciences (NCATS), 2019)
